# PubChem BioAssay AID485294 (National Center for Advancing Translational Sciences (NCATS), 2010)
# The whole screen tested about 370,000 compounds, of which about 150 (0.041%) were called active. Inconclusive results, whose numbers are uncertain, are shown with a selection of clear calls. Calls follow the shape of the dose curve; as a rule, active = well fitted inhibition curve with a large enough effect; inconclusive = small, poorly fitted or top-dose-only effect; inactive = flat fitted curve, though single readings scatter. Potencies of inconclusive entries are left out as doubtful fits.
# Biological target: Beta-lactamase (Escherichia coli (strain K12)) (UniProt P00811)
# Experiment: qHTS Inhibitors of AmpC Beta-Lactamase (assay with detergent); also: nearly all actives have a fitted effect of over 25% in size;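 as to activity change, negative = inhibition: 0% = no-compound wells and -100% = no-enzyme wells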
# Conditions: AmpC hydrolysis of nitrocefin, absorbance 480 nm, 0.01% Triton; activity change, negative = inhibition: at 114 µM (top of the series)
# In short: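 AmpC (5.3 nM in the dispensed reagent) in 20 mM phosphate pH 7.0 with 0.01% (detergent screen) or 0.0001% Triton X-100 was preincubated with compounds for 15 min at room temperature. Nitrocefin was then added from an 800 uM solution, and hydrolysis was followed at 480 nm.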
# Potency is read from the fitted curve at half-maximal effect; tags tell the direction and shape of the fitted curve.
# Chain of UniProt P00811 (P00811 whole entry, looked up): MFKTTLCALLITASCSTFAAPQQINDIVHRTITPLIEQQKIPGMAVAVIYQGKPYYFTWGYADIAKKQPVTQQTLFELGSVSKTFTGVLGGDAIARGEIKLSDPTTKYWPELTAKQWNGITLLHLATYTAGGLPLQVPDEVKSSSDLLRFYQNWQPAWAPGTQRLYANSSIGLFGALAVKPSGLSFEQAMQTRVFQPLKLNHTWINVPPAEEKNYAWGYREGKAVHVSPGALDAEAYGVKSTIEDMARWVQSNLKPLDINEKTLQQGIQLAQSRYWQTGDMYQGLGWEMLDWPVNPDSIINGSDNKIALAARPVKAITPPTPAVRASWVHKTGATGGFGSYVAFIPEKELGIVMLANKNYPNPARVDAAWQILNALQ
Structure (SMILES),Potency,"activity change, negative = inhibition"
Cn1cnnc1SCC(=O)Nc1cc(S(=O)(=O)N2CCCCCC2)ccc1Cl,"inconclusive [inhibitor, full curve, poor fit]",–
Cc1ccc(S(=O)(=O)CCC(=O)Nc2sccc2C#N)cc1,"inconclusive [inhibitor, single point]",–
C[C@@H]1NC(=O)c2cc([N+](=O)[O-])cc(I)c2OCC[C@@H](C(N)=O)NC(=O)[C@H](CCCCN)NC1=O,"inconclusive [inhibitor, full curve, poor fit]",–
Cn1c(N2CCOCC2)c(/C=N/OC(=O)c2ccc(F)cc2)c2ccccc21,–,inactive: 6.26%
COCCNC(=O)Cn1c(=O)n(Cc2ccco2)c(=O)c2ccccc21,"inconclusive [inhibitor, partial curve, poor fit]",–
Cc1cc(=O)[nH]c(SCC(=O)Nc2nonc2C)n1,–,inactive: 0.919%
CCC(=O)Nc1ccc(N2CCCCC2)cc1,"inconclusive [inhibitor, single point]",–
Cc1nc(C)c(-c2csc(NCc3ccccc3)n2)s1,"inconclusive [inhibitor, full curve]",–
CCOc1ccc(C2CC(c3ccc(F)cc3)Nc3nc(N)nn32)cc1 (stereo not given),–,inactive: -12.2%
Cc1sc(N)nc1-c1ccc(Oc2ccccc2)cc1,–,inactive: 2.21%
COc1ccc(-n2c(SCC(C)=O)nc3sc(C)c(C)c3c2=O)cc1,"inconclusive [inhibitor, full curve, poor fit]",–
Cc1cc(Cl)ccc1NC(=O)COC(=O)c1cc([N+](=O)[O-])ccc1N1CCOCC1,–,inactive: 0%
O=C(NC1CCN(Cc2ccc(Cl)cc2)CC1)c1cn(-c2ccccc2)nc1-c1cccnc1,"inconclusive [inhibitor, full curve, poor fit]",–
CC(C)(C)Nc1nc(OCC(F)(F)F)nc(OCC(F)(F)F)n1,"inconclusive [inhibitor, full curve, poor fit]",–
O=C1C=CC(=C(c2ccc(O)cc2)c2ccc(O)cc2)C=C1,–,inactive: -3.82%
CN(C)S(=O)(=O)c1ccc2c(c1)C(=O)c1cc(S(=O)(=O)N(C)C)ccc1CC2,–,inactive: -3.43%
Cn1c(SCc2nc3cc(C(=O)O)ccc3c(=O)[nH]2)nnc1C(F)(F)F,"inconclusive [inhibitor, partial curve, poor fit]",–
CC(C)C(NS(=O)(=O)c1ccccc1)C(=O)OCC(=O)NNC(=O)c1ccccc1 (stereo not given),"inconclusive [inhibitor, single point]",–
COc1cc(C(=O)OCC(=O)NC(=O)C2CCCCC2)ccc1OC(F)F,"inconclusive [inhibitor, full curve, poor fit]",–
CCc1cc(=O)oc2c(C)c(OCC(=O)N3C[C@H]4C[C@@H](C3)c3cccc(=O)n3C4)ccc12,"inconclusive [inhibitor, partial curve, poor fit]",–
CCOC(=O)c1cc2c(ccn2C)n1CC(=O)N1CCC(Cc2ccccc2)CC1,"inconclusive [inhibitor, full curve, poor fit]",–
COCCn1c(SCC(=O)NC2CC2)nnc1-c1ccc(Cl)cc1,"inconclusive [inhibitor, single point]",–

Structure (SMILES),Potency,"activity change, negative = inhibition"
COc1ccc(-c2nc(C)c(CCNC(=O)c3cccc(C)c3)s2)cc1OC,–,inactive: -7.14%
Cc1ccc2cc(CCNC(=O)c3c(-c4ccccc4Cl)noc3C)c(=O)[nH]c2c1,"inconclusive [inhibitor, partial curve]",–
Cc1ccc(S(=O)(=O)N/N=C2/CC(=O)CC(C)(C)C2)cc1[N+](=O)[O-],"inconclusive [inhibitor, partial curve]",–
Nc1nc(N2C(=O)C3CC=CCC3C2=O)nn1-c1ccccc1 (stereo not given),"inconclusive [inhibitor, partial curve, poor fit]",–
Cc1cc(C(=O)N/N=C/c2cc(Cl)cc([N+](=O)[O-])c2O)c2ccccc2n1,"inconclusive [inhibitor, full curve]",–
CCC(C)(C)n1nnnc1C(c1ccc(C)cc1)N1CCC(C)CC1 (stereo not given),"inconclusive [inhibitor, full curve]",–
O=C(O)c1ccc(C(=O)c2ccc3c(c2)C(=O)N(CC2CCCO2)C3=O)cc1 (stereo not given),"inconclusive [inhibitor, single point]",–
COc1ccccc1-n1c(O)c(C=NCCN2CCNCC2)c(=O)[nH]c1=O,"inconclusive [inhibitor, partial curve]",–
Cc1ccc(NS(=O)(=O)c2ccc(C(=O)N3CCCC(C(F)(F)F)C3)cc2)cc1 (stereo not given),"inconclusive [inhibitor, single point]",–
Cc1ccc(NC(=O)Cc2nnc(SCC(=O)c3ccc(Br)cc3)n2C)cc1,"inconclusive [inhibitor, full curve, poor fit]",–
O=[N+]([O-])c1ccccc1/C=C/CN1CCC(O)CC1,"inconclusive [inhibitor, full curve, poor fit]",–
S=C(NCc1cccnc1)Nc1cccc(Cl)c1,–,inactive: 2.83%
CCn1cc(S(=O)(=O)c2ccccc2)c(=O)c2cc(F)c(N3CCCCCC3)cc21,–,inactive: 2.16%
COCCN(C(=O)CSc1nnc(-c2cccc(F)c2)n1N)c1c(N)n(Cc2ccccc2)c(=O)[nH]c1=O,–,inactive: -4.95%
Cc1ccccc1C(=O)NNC(=S)NC(=O)c1ccccc1,"inconclusive [inhibitor, full curve, poor fit]",–
CC(=O)c1cccc(NC(=O)c2ccc3c(c2)CCN3S(=O)(=O)c2ccccc2)c1,inactive,–
CCn1cc([N+](=O)[O-])c(C(=O)Nc2c(C)nn(Cc3c(F)c(F)c(F)c(F)c3F)c2C)n1,"inconclusive [inhibitor, full curve, poor fit]",–
COc1ccccc1Cn1c(CNS(=O)(=O)c2c(C)cc(C)cc2C)nc2cccnc21,–,inactive: 0.277%
COCCNC(=O)Nc1ccc2nc(C)sc2c1,–,inactive: -10.4%
COc1ccc(OC)c(NC(=S)N2CCN(C(=O)C3CCCO3)CC2)c1 (stereo not given),"inconclusive [inhibitor, full curve, poor fit]",–
CCCC(c1nnnn1CCc1ccccc1)N1CCC(C(N)=O)CC1 (stereo not given),"inconclusive [inhibitor, single point]",–
CC(Oc1ccc(Cl)cc1Cl)C(=O)Nc1ccc2oc(-c3ccncc3)nc2c1 (stereo not given),"inconclusive [inhibitor, single point]",–

Structure (SMILES),Potency,"activity change, negative = inhibition"
Cc1cc(C)c(OCC(=O)Nc2nnc(C3CC3)s2)c(C)c1,"inconclusive [inhibitor, full curve, poor fit]",–
O=C(Nc1ccon1)c1sc2cc(F)ccc2c1Cl,"inconclusive [inhibitor, partial curve, poor fit]",–
CCOC(=O)c1sc(S(C)(=O)=O)c2c1CC(C)(C)C/C2=N/O,–,inactive: 5.36%
C/C(=N\NC(=O)c1cccc(S(=O)(=O)N2CCOCC2)c1)c1ccc(C)cc1,"inconclusive [inhibitor, single point]",–
COc1ccccc1CN(Cc1cc2c(C)ccc(C)c2[nH]c1=O)Cc1nnnn1Cc1ccco1,–,inactive: 3.53%
CC(C)OC(=O)CC(NC(=O)OC(C)(C)C)c1ccccc1 (stereo not given),"inconclusive [inhibitor, partial curve, poor fit]",–
O/N=C/c1ccc2cccc(O)c2n1,–,inactive: -4.89%
CN1CCCN(S(=O)(=O)c2ccc3ccccc3c2)CC1,"inconclusive [inhibitor, full curve, poor fit]",–
COc1ccc(S(=O)(=O)N2CCCCC2)cc1NC(=O)CCCNC(=O)c1ccc(Cl)cc1,"inconclusive [inhibitor, partial curve, poor fit]",–
CCN1C(=O)N(CC)C2NC(=S)NC21 (stereo not given),"inconclusive [inhibitor, single point]",–
O=[N+]([O-])c1cccc(Nc2nc(Cl)nc(Cl)n2)c1,–,inactive: -8.58%
N/C(=N\OC(=O)c1ccc(Cl)cc1Cl)c1ccncc1,–,inactive: 1.65%
CC(C)[C@@H]1NC(=O)c2cc([N+](=O)[O-])cc(I)c2OCC[C@@H](C(N)=O)NC(=O)[C@H](CCC(=O)O)NC1=O,"inconclusive [inhibitor, partial curve, poor fit]",–
COc1ccccc1OCC(=O)Nc1ccc(S(=O)(=O)Nc2cc(C)on2)cc1,"inconclusive [inhibitor, full curve, poor fit]",–
Cc1cc(Cl)cc(C)c1OCCCCn1ccnc1,"inconclusive [inhibitor, full curve, poor fit]",–
CC1(C)C(C=C(Cl)Cl)C1C(=O)N/N=C/c1ccccc1F (stereo not given),"inconclusive [inhibitor, partial curve, poor fit]",–
Nc1cccc(C(=O)OCC(=O)c2ccccc2)c1,"inconclusive [inhibitor, partial curve]",–
CCC(C)C(NC(=O)C1CCC(C)CC1)C(=O)NC(C(=O)OC)C(C)C (stereo not given),"inconclusive [inhibitor, full curve, poor fit]",–
COC(=O)CNS(=O)(=O)c1ccc(C)cc1,"inconclusive [inhibitor, partial curve, poor fit]",–
CN=C(NC(=O)Nc1c(C)cccc1C)NC(=O)Nc1c(C)cccc1C,"inconclusive [inhibitor, full curve, poor fit]",–
Cc1ccc(NC(=O)Cn2c(C)cc(C)c(C#N)c2=O)c(Cl)c1,"inconclusive [inhibitor, partial curve, poor fit]",–
